The supplement of paper PMC10369915
The other results are listed elsewhere or left out. No stated cut-off is given here; in the data, active = 3.2 or more and inactive = the rest. Most of these values are background signal.

B1: GRIA3_Y451_R450Q (peptide)
chain: EGNEQYEGYCV
B2: GRIN2B_Y1109 (peptide)
chain: EIELAYRRRPP
B3: GRIN2A_Y281_S278F (peptide)
chain: LIFVSYDDWDY
B4: GRAP_Y101_Q104L (peptide)
chain: SVSVNYGDLVQ
B5: GPR143_Y231_T232K (peptide)
chain: GRQGIYKENER
B6: GRIA3_Y705_M706T (peptide)
chain: EKMWSYTKSAE
B7: GRIN2D_Y732_M733V_YF (peptide)
chain: PDMHSYVVRFN
B8: GRIN2A_Y1423_D1421N (peptide)
chain: GHNNVYISEHV
B9: GPR179_Y460_G455D (peptide)
chain: DFAIVYGTIIL
B10: GRIN2D_Y736_M733V (peptide)
chain: SYVVRYNQPRV
B11: GRB14_Y347_N349K (peptide)
chain: YGMQLYQKYMH
B12: GRIN2A_Y1246 (peptide)
chain: RMGNLYDIDED
B13: GREB1L_Y1560_YF (peptide)
chain: PLFRKYWPNHI
B14: GRIN2A_Y1423_E1426K (peptide)
chain: GHNDVYISKHV
B15: GRIA3_Y451 (peptide)
chain: EGNERYEGYCV
B16: GRAP2_Y324_L319F (peptide)
chain: FFPANYVAPMT
B17: GRIN2A_Y1423_S1425L (peptide)
chain: GHNDVYILEHV
B18: GRHL3_Y518_R520Q (peptide)
chain: QRVLLYVQRET
B19: GRIA4_Y695_R697P (peptide)
chain: EKMWTYMPSAE

target: SHP2 C-SH2 domain E139D; assay: enrichment score (SH2-bound / input frequency) (ratio); bacterial display of known human phosphotyrosine sites (pTyr-Var adds point mutants) read by sequencing; higher = stronger binding; tyrosines were phosphorylated by kinases first; details: peptide library: pTyr-Var
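Further: displayed peptides selected on beads carrying the immobilized SH2 domain, with library peptides lacking any tyrosine serving as negative controls.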

Binder	enrichment score
B1	inactive: 0.511
B2	inactive: 0.195
B3	active: 3.78
B4	inactive: 0.677
B5	inactive: 1
B6	inactive: 0.86
B7	inactive: 0.992
B8	inactive: 0.645
B9	inactive: 0.521
B10	inactive: 0.91
B11	inactive: 1.09
B12	inactive: 0.942
B13	inactive: 0.694
B14	inactive: 0.903
B15	inactive: 0.509
B16	inactive: 1.19
B17	inactive: 1.04
B18	inactive: 2.33
B19	inactive: 1

target: SHP2 C-SH2 domain wild-type; assay: as above; details: peptide library: pTyr-Var

Binder	enrichment score
B1	inactive: 0.462
B2	inactive: 0.194
B3	inactive: 3.12
B4	inactive: 0.817
B5	inactive: 0.821
B6	inactive: 0.734
B7	inactive: 1.12
B8	inactive: 0.558
B9	inactive: 0.742
B10	inactive: 0.821
B11	inactive: 0.877
B12	inactive: 0.6
B13	inactive: 0.56
B14	inactive: 0.677
B15	inactive: 0.494
B16	inactive: 1.02
B17	inactive: 0.764
B18	inactive: 1.68
B19	inactive: 0.9

target: SHP2 N-SH2 domain L43F; assay: as above; details: peptide library: pTyr-Var

Binder	enrichment score
B1	inactive: 0.493
B2	inactive: 0.22
B3	active: 3.26
B4	inactive: 0.678
B5	inactive: 0.82
B6	inactive: 0.791
B7	inactive: 0.938
B8	inactive: 0.86
B9	inactive: 0.529
B10	inactive: 0.839
B11	inactive: 0.985
B12	inactive: 0.744
B13	inactive: 0.645
B14	inactive: 0.633
B15	inactive: 0.476
B16	inactive: 1.44
B17	inactive: 0.918
B18	inactive: 2.12
B19	inactive: 0.938

target: SHP2 N-SH2 domain T42A; assay: as above; details: peptide library: pTyr-Var

Binder	enrichment score
B1	inactive: 0.482
B2	inactive: 0.41
B3	inactive: 2.58
B4	inactive: 0.635
B5	inactive: 0.723
B6	inactive: 0.709
B7	inactive: 1.04
B8	inactive: 0.569
B9	inactive: 0.493
B10	inactive: 1.14
B11	inactive: 0.794
B12	inactive: 0.854
B13	inactive: 0.588
B14	inactive: 0.615
B15	inactive: 0.414
B16	inactive: 1.02
B17	inactive: 0.895
B18	inactive: 1.74
B19	inactive: 1.17

target: SHP2 N-SH2 domain T52S; assay: as above; details: peptide library: pTyr-Var

Binder	enrichment score
B1	inactive: 0.397
B2	inactive: 0.255
B3	active: 3.23
B4	inactive: 0.712
B5	inactive: 0.69
B6	inactive: 0.899
B7	inactive: 0.883
B8	inactive: 0.851
B9	inactive: 0.501
B10	inactive: 0.82
B11	inactive: 0.997
B12	inactive: 1.18
B13	inactive: 0.619
B14	inactive: 0.495
B15	inactive: 0.357
B16	inactive: 1.37
B17	inactive: 0.875
B18	inactive: 1.82
B19	inactive: 0.81

target: SHP2 N-SH2 domain wild-type; assay: as above; details: peptide library: pTyr-Var

Binder	enrichment score
B1	inactive: 0.439
B2	inactive: 0.261
B3	inactive: 3.05
B4	inactive: 0.59
B5	inactive: 0.781
B6	inactive: 1.4
B7	inactive: 0.749
B8	inactive: 0.747
B9	inactive: 0.856
B10	inactive: 0.739
B11	inactive: 0.911
B12	inactive: 0.823
B13	inactive: 0.546
B14	inactive: 0.685
B15	inactive: 0.666
B16	inactive: 1.05
B17	inactive: 0.733
B18	inactive: 2.06
B19	inactive: 0.882
